Measured values published in the supplement of paper PMC11417369.
This is one part of the list.

Tested on: PfHDP1 homeodomain (GST-tagged)
Test: gcPBM binding intensity (ln(normalized median fluorescence intensity)); higher = stronger DNA binding
In short: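 Binding of GST-tagged P. falciparum DNA-binding domains, expressed in E. coli and used at about 25 μg on average, was carried out for 1 h in 1× PBS containing 1% milk, 0.2 mg/ml BSA, 0.5% salmon testes DNA and 0.03% Triton X-100. The target was an Agilent 4 × 180k array of primer-extended double-stranded 36-bp intergenic genomic probes plus negative controls, read with Alexa488 anti-GST antibody at 488 nm. Binding intensity is the highest Masliner-normalised natural-log median intensity across replicate spots of either probe orientation.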

Row | Sequence | gcPBM binding intensity (ln)
1 | TTATATTATAGACACACACACAAAAAAAAAAAAAAA [CACACA_site3816] | 6.4
2 | TATATATATATTATTAGTACTTATTTTTTTTCATAT [XGTACX_site1279] | 8.55
3 | TGTAAAACCTCCTACACACACCAATTAACTATTCTA [CACACA_site7074] | 6.53
4 | TATAACTTTTATAGGTGTACCCAATATTATATATAG [XGTACX_site7673] | 6.27
5 | TATATATAATAAGAAGGTACACGTAAGTAATAATTT [XGTACX_site934] | 7.08
6 | TTTATATGTTTTGTATTTTTAATAAATATTTTATTA [TGCATGCA_negctrl_site20] | 6.69
7 | CCATCTTTTTTACGATGTACAAGTATAAGGTATACG [XGTACX_site2697] | 6.66
8 | TTCTTTTTTTTTCTGGGTACATATATTCCAATCACT [XGTACX_site4770] | 7.3
9 | TTATAAAAGACAAAAGTGCATATATACATATGTATA | 7.5
10 | AATATAATTATATGTGGTACAGAAATAATATAAAAT [XGTACX_site2366] | 6.96
11 | TATTATGTTATATATTGTACATGTTTATTGAAACAA [XGTACX_site5605] | 6.5
12 | TTTATATGTGAAAAAAGTACAAGGAAAAAATTAAAC [XGTACX_site7269] | 7.07
13 | TTTTTTTTAGTATGAACACACATATATATTATAAAA [CACACA_site2935] | 6.38
14 | TATTAACAAAATATAGCACACATAAATATATATTTA [CACACA_site8005] | 6.84
15 | AATATATCTTTTTACGGCAACCATATTTTTCCCATT [CACACA_negctrl_site963] | 6.74
16 | TTTTTTTTTTTTTGATGTACATAAATTAAGAATTAT [XGTACX_site7789] | 6.39
17 | TTGAATTAAAAACATACATGCATATATATATATATA [TGCATGCA_site319] | 9.29
18 | AAAAAGTTACATGGTGGTACTCAAATAAAATATTCT [XGTACX_site5993] | 6.06
19 | AATAAATTACTATGTACACACATAAGAGTATAAATA [CACACA_site6940] | 6.75
20 | TTATAAAATGGGCAAACACACACAAAAAAAAGATAT [CACACA_site8476] | 7.42
21 | ATTATCCATGCATTTACACACACACTAAAAAAAATT [CACACA_site7848] | 7.42
22 | AATTAAATTTATATGAATGTCAATTATATTGTTATA [XGTACX_negctrl_site261] | 5.99
23 | ATGTATATATATTTGTGTACATATTTAGGAAATAAA [XGTACX_site2904] | 6.43
24 | ATAAAACAACACACTTGTACTAATTTTTTTTTTTTT [XGTACX_site8377] | 6.32
25 | TGAATAAATAGACACACACACATATATAAATATGTA [CACACA_site6159] | 6.43
